According to patent US20110166106A1, “ARTEMISININ AND DERIVATIVES THEREOF AS ANTIVIRALS” (priority 2008, published 2011):

What was measured:
[1] = test system: Epstein-Barr virus (EBV, strain B95-8); test: Indirect immunofluorescence IC50 determination in EBV-infected Raji cells; conditions: read-out: IC50 for EBV, 3 days
[2] = test system: human influenza A virus (Influenza A, strain WSN/33); test: Standard plaque reduction assay, influenza A; conditions: strain WSN/33, plaque reduction

C[C@H]1[C@H](OC(=O)CCC(=O)O)O[C@@H]2O[C@@]3(C)CC[C@H]4[C@H](C)CC[C@@H]1[C@@]24OO3 [ART, artesunate]
IC50 [1]: 7.21 ± 2.25 µM
ART sensitivity of influenza A virus [2]: not inhibited
